From PubChem BioAssay AID485344 (National Center for Advancing Translational Sciences (NCATS), 2010)
In all, about 340,000 compounds went through this assay and about 6,900 (2%) were called active. Cut-off read from the data, not from the text of the source: active = inhibition above about 30%; inactive = below that, where a call was filed. The entries are a selection whose mix differs from that of the whole data set. The source gives no active or inactive call for entries shown without one.

Molecular target: D(2) dopamine receptor (Homo sapiens) (UniProt P14416)
Sequence of UniProt P14416 (P14416 whole entry, looked up): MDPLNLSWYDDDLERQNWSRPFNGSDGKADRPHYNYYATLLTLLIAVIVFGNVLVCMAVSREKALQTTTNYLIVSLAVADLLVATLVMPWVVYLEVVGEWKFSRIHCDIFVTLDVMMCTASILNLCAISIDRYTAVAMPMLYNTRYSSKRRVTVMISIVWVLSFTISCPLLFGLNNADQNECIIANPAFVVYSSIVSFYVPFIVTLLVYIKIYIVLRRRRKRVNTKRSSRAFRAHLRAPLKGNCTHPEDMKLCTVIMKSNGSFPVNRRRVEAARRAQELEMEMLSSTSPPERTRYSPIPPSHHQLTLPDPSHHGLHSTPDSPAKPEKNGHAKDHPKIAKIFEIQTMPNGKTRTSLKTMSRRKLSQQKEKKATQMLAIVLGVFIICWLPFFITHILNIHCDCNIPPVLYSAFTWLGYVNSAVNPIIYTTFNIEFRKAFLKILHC
Assay: HTS Assay for Allosteric Antagonists of the Human D2 Dopamine Receptor: Primary Screen for Antagonists; note: 0% is about no effect
Settings: HEK293 TREx D2 cells, calcium flux, dopamine EC80; at 10 µM; stronger effect = higher value
In short: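 Antagonism is scored as inhibition of an EC80 dopamine-evoked calcium signal in a force-coupled, tetracycline-inducible HEK293 T-REx D2 line, with compound present 180 s before agonist.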

Compound | inhibition
Cc1ccc(-n2c3c(cc(-c4nc(-c5ccc(Cl)cc5)cs4)c2=O)C(=O)CC(C)(C)C3)cc1 | 6.53%
COc1cccc(CNC(=O)CN2C(=O)CCn3nc(-c4cn(C)c5ccccc45)cc32)c1OC | -14.7%
O=C(Cc1ccc(Cl)cc1)NCC(c1cccs1)S(=O)(=O)c1ccc(Cl)cc1 (centres undefined) | -15.8%
CCN(CC)S(=O)(=O)c1ccc(C)c(NC(=O)CNCc2ccccc2OC)c1 | active: 96.3%
Cc1cccc(C(=O)Nc2nnc(SCc3cc(=O)n4cccc(C)c4n3)s2)c1 | -4.01%
COc1ccc(C(=O)N/C(=C\c2cn(S(=O)(=O)N(C)C)c3ccccc23)C(=O)NCCCn2ccnc2)cc1 | -6.45%
Cc1cccc(NC(=O)c2c(NC(=O)c3ccco3)sc3c2CCC(C(C)(C)C)C3)c1 (centres undefined) | -17.5%
CN(Cc1ccccc1)C(=O)C1CCN(Cc2cc3ccccc3n2Cc2ccccc2)CC1 | -16.8%
COc1ccccc1NC(=O)c1sc2nc(-c3cc4ccccc4oc3=O)[nH]c(=O)c2c1C | -12.7%
O=C(CCN1CCN(c2ccccc2)CC1)N/N=C/c1ccc([N+](=O)[O-])o1 | active: 69.9%
Cc1cc(C)cc(NC(=O)c2cccc(N3CCCS3(=O)=O)c2)c1 | 2.11%
O=S(=O)(Nc1ccccn1)c1ccc(Cl)c2ccccc12 | active: 30.6%
Cc1ccc(/C=C/c2onc(C)c2S(=O)(=O)N2CCC(C(=O)NCc3ccc(N(C)C)cc3)CC2)cc1 | 12.8%
CCCCS(=O)CC(O)CSc1nc(-c2ccc(OC)cc2)cc(-c2ccccc2)c1C#N (centres undefined) | 3.54%
Fc1ccccc1N1CCN(c2c3c(nc4nncn24)CCC3)CC1 | 3.3%
CCC(Sc1nnc(-c2ccc(OC)cc2)c(-c2ccc(OC)cc2)n1)C(=O)Nc1cccc(OC)c1 (centres undefined) | 9.44%
Cc1ccc(OCCCC(=O)Nc2sc3c(c2C(N)=O)CCCC3)cc1 | 1.2%
Cn1ncc2c(N3CCN(c4ccccc4Cl)CC3)ncnc21 | 17.1%
CCCCN(C)C(=O)Cn1ncc2c([nH]c3ccc(C)cc32)c1=O | 6.31%
CCOc1ccccc1NC(=O)CCNS(=O)(=O)c1ccc2c(c1)CCN2C(=O)C1CC1 | -20.3%
CCOC(=O)C1CCCN(CCSc2ccc(C)cc2)C1 (centres undefined) | active: 43.5%
CCC1CN(C(=O)N2CCC(C(=O)N(C)Cc3ccccc3)CC2)c2ccccc2O1 (centres undefined) | -8.11%
Cc1ccc2nc(CN3CCN(C(=O)Nc4cccc(C)c4C)CC3)oc2c1 | 0.395%
Cc1ccc(CNC(=O)c2cc(S(=O)(=O)N3CCCCC3)cn2C)cc1 | -1.15%

Compound | inhibition
COC(=O)c1scc(-c2ccc(C)cc2)c1S(=O)(=O)Nc1c(C)cc(C)cc1C | -0.338%
COc1ccc(NC(=O)CN2C(=O)CC(c3ccco3)Sc3ccccc32)cc1OC (centres undefined) | -7.05%
CCS(=O)(=O)c1ncc(N(Cc2cccc(F)c2)Cc2ccco2)c(C(=O)Nc2ccccc2Cl)n1 | 18.7%
CCOC(=O)c1cccc(NC(=O)c2cnn(-c3ccccc3)c2-n2cccc2)c1 | 16.4%
CC(=O)N1c2ccccc2C(=O)C1N1CCN(c2cc(Cl)ccc2C)CC1 (centres undefined) | 11%
CC(=O)c1ccc(N2CCN(S(=O)(=O)c3ccc4[nH]c5c(c4c3)CCCCC5)CC2)cc1 | -3.73%
CCC1CN(C(=O)Nc2ccccc2C(F)(F)F)c2ccccc2S1 (centres undefined) | -2.49%
COc1ccc(-c2cc(C(F)(F)F)n3nc(C(=O)Nc4sc5c(c4C#N)CCC(C)C5)cc3n2)cc1OC (centres undefined) | -13.2%
CCC(C)NC(=O)c1[nH]c2cc(OC)ccc2c1Sc1ccc(C)cc1 (centres undefined) | 28%
CCOC(=O)C1CCN(C(=O)c2cc3ccc4ccc(C)[nH]c4c3n2)CC1 | -0.773%
Cc1ccc(-n2ncc(C(=O)NCCCN3CCc4ccccc4C3)c2C2CCN(C(=O)OC(C)(C)C)CC2)cc1C | 11.9%
COc1ccc2c(c1)c1c(c(=O)n(Cc3ccccc3)c(=O)n1Cc1ccc(C)cc1)n2C | 8.04%
CC(CNC(=O)CN1C(=O)COc2ccc(S(=O)(=O)N3CCCCC3)cc21)c1ccccc1 (centres undefined) | -1.54%
O=C(Nc1ccc(Cl)cc1)C1CCN(S(=O)(=O)c2ccc(Br)s2)CC1 | 2.03%
Cc1ccccc1C(=O)Nc1ccc(C(=O)OCc2cc(=O)n3nc(C4CC4)sc3n2)cc1 | -1.93%
CC1CN(C(=O)Nc2ccc(C(=O)NCCc3ccccc3Cl)cc2)c2ccccc2S1 (centres undefined) | 8.43%
Cc1oc2cc3oc(=O)c(CCC(=O)NCCCC(=O)O)c(C)c3cc2c1C | active: 33.3%
O=C(Nc1ccc2c(c1)OCO2)C1CCN(Cc2cc3c(cc2O)OCO3)CC1 | active: 35%
COc1ccc(NC(=O)c2cc(S(=O)(=O)N3CCCCC3)c[nH]2)cc1Cl | 9.7%
Cc1ccc(Cl)cc1NC(=O)c1cnn2c(C(F)F)cc(-c3ccccc3)nc12 | 2.03%
Cc1ccc(NC(=O)c2c(C)oc3ccc(O)c(CN4CCCCC4)c23)cc1 | 3.17%
COC(=O)c1c(NC(=O)C(C)Oc2ccc(Cl)cc2Cl)sc2c1CCCC2 (centres undefined) | 7.25%
Cc1cc(C)c(/C=C/c2onc(C)c2S(=O)(=O)N2CCC(C(=O)NCC(C)c3ccccc3)CC2)c(C)c1 (centres undefined) | 9.11%
Cc1cc(NC(=O)CC(C)C)cc(-c2nc3ncccc3o2)c1O | -6.36%

Compound | inhibition
CC1CCN(C(=O)c2ccccc2NC(=O)c2nsc3ccccc23)CC1 | 15.4%
CCc1cccc(NC(=O)C2CCCN2S(=O)(=O)c2ccc3c(c2)n(C)c(=O)c(=O)n3C)c1 (centres undefined) | 18.6%
COc1ccc(-n2c(SCC(=O)Nc3cc(C)cc(C)c3)nc3c(oc4ccccc43)c2=O)cc1 | 2.91%
O=C(COC(=O)/C=C/c1cccc(C(F)(F)F)c1)NCc1ccccc1 | active: 33%
CCOc1ccc(-c2cc(NC(=O)c3c(F)cccc3F)c(C(=O)OC)s2)cc1 | 0.79%
O=C(c1cc2c(s1)-c1ccccc1OC2)N1CCc2ccccc2C1 | active: 33.1%
COc1ccc(CNC(=O)CCc2c(C)nn(-c3ccc(N4CCCC4)nn3)c2C)c(OC)c1 | 3.8%
COc1ccccc1N1CCN(C(=O)c2nc(-c3ccc(C)cc3)n3c2CCCCC3)CC1 | -10.1%
COc1ccc(-c2ccc3c(N)c(C(=O)Nc4ccc(C)cc4C)sc3n2)cc1OC | -8.75%
CC(C)c1nc2ccc(C(=O)NCc3ccc(F)cc3)cc2o1 | -9.33%
COc1ccc(S(=O)(=O)NCC(c2ccco2)N2CCN(c3ccccc3F)CC2)cc1OC (centres undefined) | -4.89%
Cc1n[nH]c(=O)c2c1nnn2Cc1ccccc1Cl | active: 57.7%
COc1ccc(C(=O)c2oc3ccccc3c2NC(=O)COc2cccc(C)c2)cc1 | -24.6%
CCN(CC)CCNC(=O)c1ccc2c(c1)NC(=O)C(CS(=O)(=O)Cc1ccc(F)cc1Cl)N2 (centres undefined) | 6.58%
CCn1cc(C(=O)NCCCN2CCC(C)CC2)c(=O)c2cc(S(=O)(=O)N(C)C3CCCCC3)ccc21 | 15.8%
Cc1nn(C)c2c1c(-c1ccccc1)cc(=O)n2C(C)C(=O)NCCc1ccc(Cl)cc1 (centres undefined) | -4.2%
Cc1ccc2[nH]c(CSc3nnc(NC(=O)COc4ccccc4C)s3)cc(=O)c2c1 | 16.5%
CCCOCc1cc(CN2CCN(c3cccc(Cl)c3)CC2)c(O)c2ncccc12 | 4.81%
Cc1cccc(C)c1NC(=O)c1c(C)oc2c1C1=NCCN1C=N2 | -22.4%
COc1ccc(Nc2cc(C(=O)NCCCN(C)c3ccccc3)c3ccccc3n2)c(OC)c1 | 3.61%
Cc1cccc(CCNC(=O)c2ccc3c(c2)nc2n3CCOC2)c1 | -13%
CCOC(=O)c1ccc(Nc2nc(N)c3cc(OC)c(OC)cc3n2)cc1 | 8.49%
COC(=O)c1ccc(NC(=O)c2cc(S(=O)(=O)N3CCC(C)CC3)cn2C)cc1 | 23%
Cc1ccc(C(=O)C2CCN(CC(=O)N3CCN(c4ccc(F)cc4)CC3)CC2)cc1 | active: 51.2%

Compound | inhibition
Cc1oc2ncnc(N3CCCCC3)c2c1C(=O)Nc1cccc(Cl)c1C | -1.26%
CCC1CCCCN1S(=O)(=O)c1ccc(NC(=O)c2nc(SC)ncc2Cl)cc1 (centres undefined) | -8.34%
N#C/C(=C/c1ccc(N2CCCCC2)o1)C(=O)Nc1ccc(Cl)cc1 | active: 61.9%
Cn1c2c(c(=O)n(C)c1=O)C(c1cc(Br)ccc1F)CC(=O)N2 (centres undefined) | 4.52%
Cc1nc2cc(-c3ccccc3)nn2c(C)c1CCC(=O)NCCc1ccccc1 | 8.9%
Cc1ccc(C(=O)N2c3ncnn3C3(CCCCC3)[C@@H]3CCCC[C@@H]32)cc1 | 14.5%
COc1ccc(OC)c(CNC(=O)CCc2c(C)nc3c(c2C)c(=O)n(C)c(=O)n3C)c1 | -5.3%
Cc1ccc2oc(=O)c(-c3nc4ccc(C)cc4[nH]3)cc2c1 | 9.5%
CCCOc1ccc(CNC(=O)C(C)n2nc(C)n3c(cc4occc43)c2=O)cc1 (centres undefined) | 0.866%
COc1ccc(Cl)cc1NC(=O)CSc1nnc(C)n2c1cc1sccc12 | 12.2%
COc1ccc(NC(=O)C2CC(=O)N(Cc3ccc(C)cc3)C2)cc1S(=O)(=O)N1CCCCC1 (centres undefined) | active: 42.7%
Cc1c(Cl)cccc1-n1c(SCC(=O)NCc2ccccc2)nc2n[nH]c(C)c2c1=N | -10.4%
COc1ccc(NC(=O)CC2C(=O)N(c3ccc(OC)cc3)C(=O)N2C2CCCCC2)cc1 (centres undefined) | 5.81%
Cc1ccc(Nc2cc(=O)[nH]c(=O)[nH]2)cc1C | -2.34%
COc1cccc(C(=O)N2CC(=O)Nc3ccc(C)cc3C2c2ccc(F)cc2)c1OC (centres undefined) | -7.29%
CCOc1cc2sc(N3CCC(C(=O)Nc4ccc(C(C)C)cc4)CC3)nc2cc1Br | 12.3%
CCOc1ccc(NC(=O)CN(c2ccccc2OCC)S(=O)(=O)c2ccccc2)cc1 | -1.29%
Cc1cc(Cl)ccc1NS(=O)(=O)c1ccc2c(c1)CCN2S(C)(=O)=O | 15.1%
Cc1cc(=O)n(Cc2cccc(Br)c2)c2c1c(C)nn2-c1ccccc1 | 2.02%
Cc1cccc(CNC(=O)Cc2csc3ccccc23)c1 | -11.5%
CC1CCCCN1S(=O)(=O)c1ccc(F)c(C(=O)Nc2ccccc2C(F)(F)F)c1 (centres undefined) | 18.4%
CCOC(=O)C1CCN(c2cc3c(cc2NC(=O)c2ccc(OC)c(OC)c2)n(C)c(=O)n3C)CC1 | 1.27%
